# Assay results taken from the supplement of paper PMC8728848.
# Some of the results follow.
# B1: FimD (Bordetella pertussis) (protein)
# chain: MPARVISFCGAALAVWAGLAVQPAMAVDPPVDCGRALGLHFWSSASLISDQTPDGTLIGKPVVGRSLLSKSCKVPDDIKEDLSDNHDGEPVDIVLELGSNYKIRPQSYGHPGIVVDLPFGSTEETGIAIYIDFGSSPMQKVGERQWLYPQKGEVLFDVLTINGDNAEVRYQAIKVGPLKRPRKLVLSQFPNLFTYKWVFMRGTSQERVLAQGTIDTDVATSTIDLKTCRYTSQTVSLPIIQRSALTGVGTTLGMTDFQMPFWCYGWPKVSVYMSATKTQTGVDGVALPATGQAAGMASGVGVQLINGKTQQPVKLGLQGKIALPEAQQTESATFSLPMKAQYYQTSTSTSAGKLSVTYAVTLNYD
# How the values were obtained:
# Test in all cases: glycan array binding signal (z-score within array); higher = stronger binding
# Conditions in all cases: glycan notation: IUPAC condensed, linker removed
# [1] = target: Fuc(a1-2)Gal(b1-4)GlcNAc(b1-3)Gal(b1-4)GlcNAc(b1-3)Gal(b1-4)GlcNAc
# Method in brief: (§1)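 Columns mapping to the same glycan were averaged after glycan names were converted to IUPAC-condensed notation. The data come from 3228 arrays in the Consortium for Functional Glycomics database, limited to those with an available protein sequence. Binding is reported as a within-array Z-score averaged across arrays of one protein sequence and across linkers.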
# [2] = target: Fuc(a1-2)Gal(b1-4)GlcNAc(b1-3)GalNAc
# Method in brief: as §1
# [3] = target: Fuc(a1-2)Gal(b1-4)GlcNAc(b1-3)[Fuc(a1-2)Gal(b1-4)GlcNAc(b1-6)]GalNAc
# Method in brief: as §1
# [4] = target: Fuc(a1-2)Gal(b1-4)GlcNAc(b1-3)[Fuc(a1-3)[Gal(b1-4)]GlcNAc(b1-6)]Gal(b1-4)Glc
# Method in brief: as §1
# [5] = target: Fuc(a1-2)Gal(b1-4)GlcNAc(b1-6)GalNAc
# Method in brief: as §1
# [6] = target: Fuc(a1-2)Gal(b1-4)GlcNAc6S
# Method in brief: as §1
# [7] = target: Fuc(a1-2)Gal(b1-4)[Fuc(a1-3)]GlcNAc
# Method in brief: as §1
# [8] = target: Fuc(a1-2)Gal(b1-4)[Fuc(a1-3)]GlcNAc(b1-2)Man(a1-3)[Fuc(a1-2)Gal(b1-4)[Fuc(a1-3)]GlcNAc(b1-2)Man(a1-6)]Man(b1-4)GlcNAc(b1-4)[Fuc(a1-6)]GlcNAc
# Method in brief: as §1
# [9] = target: Fuc(a1-2)Gal(b1-4)[Fuc(a1-3)]GlcNAc(b1-2)[Fuc(a1-2)Gal(b1-4)[Fuc(a1-3)]GlcNAc(b1-4)]Man(a1-3)[Fuc(a1-2)Gal(b1-4)[Fuc(a1-3)]GlcNAc(b1-2)Man(a1-6)]Man(b1-4)GlcNAc(b1-4)GlcNAc
# Method in brief: as §1
# [10] = target: Fuc(a1-2)Gal(b1-4)[Fuc(a1-3)]GlcNAc(b1-3)Gal(b1-4)[Fuc(a1-3)]GlcNAc
# Method in brief: as §1
# [11] = target: Fuc(a1-2)Gal(b1-4)[Fuc(a1-3)]GlcNAc(b1-3)Gal(b1-4)[Fuc(a1-3)]GlcNAc(b1-3)Gal(b1-4)[Fuc(a1-3)]GlcNAc
# Method in brief: as §1
# [12] = target: Fuc(a1-2)Gal(b1-4)[Fuc(a1-3)]GlcNAc(b1-3)GalNAc
# Method in brief: as §1
# [13] = target: Fuc(a1-2)Gal(b1-4)[Fuc(a1-3)]GlcNAc(b1-3)[Neu5Ac(a2-6)Gal(b1-4)GlcNAc(b1-6)]Gal(b1-4)Glc
# Method in brief: as §1
# [14] = target: Fuc(a1-2)Gal3S(b1-4)GlcNAc
# Method in brief: as §1
# [15] = target: Fuc(a1-2)Gal6S(b1-3)GlcNAc
# Method in brief: as §1
# [16] = target: Fuc(a1-2)Gal6S(b1-3)GlcNAc6S
# Method in brief: as §1
# Fuc(a1-2)Gal6S(b1-4)Glc = target: Fuc(a1-2)Gal6S(b1-4)Glc
# Method in brief: as §1
# [17] = target: Fuc(a1-2)Gal6S(b1-4)Glc6S
# Method in brief: as §1
# Fuc(a1-2)[Gal(a1-3)]Gal = target: Fuc(a1-2)[Gal(a1-3)]Gal
# Method in brief: as §1
# [18] = target: Fuc(a1-2)[Gal(a1-3)]Gal(b1-3)GalNAc
# Method in brief: as §1
# [19] = target: Fuc(a1-2)[Gal(a1-3)]Gal(b1-3)GalNAc(b1-3)Gal(a1-4)Gal(b1-4)Glc
# Method in brief: as §1
# [20] = target: Fuc(a1-2)[Gal(a1-3)]Gal(b1-3)GlcNAc
# Method in brief: as §1
# [21] = target: Fuc(a1-2)[Gal(a1-3)]Gal(b1-3)GlcNAc(b1-2)Man(a1-3)[Fuc(a1-2)[Gal(a1-3)]Gal(b1-3)GlcNAc(b1-2)Man(a1-6)]Man(b1-4)GlcNAc(b1-4)GlcNAc
# Method in brief: as §1
# [22] = target: Fuc(a1-2)[Gal(a1-3)]Gal(b1-3)GlcNAc(b1-2)Man(a1-3)[Fuc(a1-2)[Gal(a1-3)]Gal(b1-3)GlcNAc(b1-2)Man(a1-6)]Man(b1-4)GlcNAc(b1-4)[Fuc(a1-6)]GlcNAc
# Method in brief: as §1
# [23] = target: Fuc(a1-2)[Gal(a1-3)]Gal(b1-3)GlcNAc(b1-3)GalNAc
# Method in brief: as §1
# [24] = target: Fuc(a1-2)[Gal(a1-3)]Gal(b1-3)GlcNAc(b1-6)GalNAc
# Method in brief: as §1
# [25] = target: Fuc(a1-2)[Gal(a1-3)]Gal(b1-4)Glc
# Method in brief: as §1
# [26] = target: Fuc(a1-2)[Gal(a1-3)]Gal(b1-4)GlcNAc
# Method in brief: as §1
# [27] = target: Fuc(a1-2)[Gal(a1-3)]Gal(b1-4)GlcNAc(b1-2)Man
# Method in brief: as §1
# [28] = target: Fuc(a1-2)[Gal(a1-3)]Gal(b1-4)GlcNAc(b1-2)Man(a1-3)[Fuc(a1-2)[Gal(a1-3)]Gal(b1-4)GlcNAc(b1-2)Man(a1-6)]Man(b1-4)GlcNAc(b1-4)GlcNAc
# Method in brief: as §1
binder,measurement,setting,value
B1,glycan array binding signal (z-score),[1],-0.426
same,glycan array binding signal (z-score),[2],-0.228
same,glycan array binding signal (z-score),[3],0.004
same,glycan array binding signal (z-score),[4],0.226
same,glycan array binding signal (z-score),[5],-0.227
same,glycan array binding signal (z-score),[6],-0.052
same,glycan array binding signal (z-score),[7],-0.158
same,glycan array binding signal (z-score),[8],0.57
same,glycan array binding signal (z-score),[9],0.133
same,glycan array binding signal (z-score),[10],0.137
same,glycan array binding signal (z-score),[11],-0.409
same,glycan array binding signal (z-score),[12],0.635
same,glycan array binding signal (z-score),[13],-0.355
same,glycan array binding signal (z-score),[14],-0.457
same,glycan array binding signal (z-score),[15],-0.232
same,glycan array binding signal (z-score),[16],0.716
same,glycan array binding signal (z-score),Fuc(a1-2)Gal6S(b1-4)Glc,-0.056
same,glycan array binding signal (z-score),[17],0.129
same,glycan array binding signal (z-score),Fuc(a1-2)[Gal(a1-3)]Gal,-0.036
same,glycan array binding signal (z-score),[18],0.05
same,glycan array binding signal (z-score),[19],-0.323
same,glycan array binding signal (z-score),[20],-0.256
same,glycan array binding signal (z-score),[21],-0.45
same,glycan array binding signal (z-score),[22],-0.218
same,glycan array binding signal (z-score),[23],-0.424
same,glycan array binding signal (z-score),[24],-0.383
same,glycan array binding signal (z-score),[25],-0.278
same,glycan array binding signal (z-score),[26],-0.119
same,glycan array binding signal (z-score),[27],0.021
same,glycan array binding signal (z-score),[28],0.604
